For some assays here: The name of at least one read-out is uncertain. For some assays here: For at least one compound, name, drawing or mass did not settle the structure.
Tests used:
Assay type in all cases: in vivo
[1] = tested on: spontaneous motor activity; test: Action on the spontaneous motor activity in mice; conditions: 30 min after per os, mg/kg: LJ 1142 112, 1144 182, 1145 58, 1160 100, 1161 150, 1176 200, 1195 85, 1196 95, 1211 100
[2] = tested on: narcotic effect of pentobarbital; test: Action on the narcotic effect of pentobarbital in the mouse; conditions: mice, 30 min after per os, pentobarbital 50 mg/kg i.v.; mg/kg: LJ 1142 112; 1144 182; 1145 58; 1160 100; 1161 150; 1176 200; 1195 85; 1196 95; 1211 100
[3] = Action on the traction test in mice; conditions: per os, mg/kg: LJ 1142 112, 1144 182, 1145 58, 1160 100, 1161 150, 1176 200, 1195 85, 1196 95, 1211 100
electric shock = test: Test of the anti-convulsant action against electric shock in mice; conditions: 30 min after per os, mg/kg: LJ 1142 112, 1144 182, 1145 58, 1160 100, 1161 150, 1176 200, 1195 85, 1196 95, 1211 100
[4] = tested on: toxicity of amphetamine compounds; test: Action on the toxicity of Amphetamine compounds in the mice; conditions: per os; for Effect on the toxicity of amphetamine compounds (% of protection): amphetamine 10 mg/kg i.p., mg/kg: LJ 1142 112, 1144 182, 1145 58, 1160 100, 1161 150, 1176 200, 1195 85, 1196 95, 1211 100
Procedure: (6) Action on the toxicity of Amphetamine compounds in the mice. (groups of 10 animals)
30 minutes after administration of the test compounds, amphetamine bitartrate is injected interperitioeally at a dose of 10 mg/kg (dose giving substantially 100% mortality) to mice in groups of 10 in boxes 12×18×13 cm. The number of animals surviving 24 hours after the amphetamine administration is noted.

[5] = Action on the body temperature of the mouse; conditions: mice, per os; mg/kg: LJ 1142 112; 1144 182; 1145 58; 1160 100; 1161 150; 1176 200; 1195 85; 1196 95; 1211 100
[6] = tested on: coughing induced by aqueous citric acid aerosol; test: Antitussive action in the guinea pig (citric acid aerosol); conditions: oral
Description: The technique used is that of SIECKMANN (W.) (in "Notions techniques de Pharmacologie generale" by Michel COLOT, page 75, Masson, Edit, 1972).
The guinea pigs .female. of mean weight 400 g, unanaesthesised, are subjected to the tussigenic effect of aerosols of a 7.5% aqueous citric acid solution. The animals are placed one by one in a cylindrical chamber having at its two extremities two canals, one serving as entrance for the aerosol and the other as its exit.
On the exit tube there is a lateral connection to a MERCURY gas pressure differential gauge joined to an RACIA counter. An adjustable screw clamp placed on the exit tube downstream of the lateral canal permits regulation of the sensitivity of the system such that the normal respiration of the animal only registers very weakly and that displacement of air in the chamber provoked by coughing attack is recorded clearly in the form of vertical traces.
Each guinea pig is first submitted to a control test for 5 minutes. One hour later it receives the test compound. It is replaced in the chamber for 5 minutes, 1 hour after oral administration of the compound.
The number of coughing attacks before and after administration is counted and the percentage inhibition is calculated.

SMILES | Spontaneous motor activity (% of variation) [1] | Pentobarbitol hypnosis time (% of variation) [2] | Traction test (% of animals which fal) [3] | Effect against Electric shock (% of protection) (electric shock) | Effect on the toxicity of amphetamine compounds (% of protection) [4] | Body temperature (Variation in ° C.) [5] | toxicity of amphetamine compounds (in words) [4] | antitussive activity (in words) [6]
O=C1CCCC1CN1CCN(c2cccc(C(F)(F)F)c2)CC1 (centres unmarked) [LJ 1160] | -28% | +207% | 80% | 90% | 90% |  |  | 
OCCN1CCN(c2ccc(F)c(C(F)(F)F)c2)CC1 [LJ 1195, 2-[4-(3-Trifluoromethyl-4-fluorophenyl)-piperazino]-ethanol] | -27% | +319% | 80% | 80% | 0% | 0 °C |  | 
OCC(O)CN1CCN(c2ccc(F)c(C(F)(F)F)c2)CC1 (centres unmarked) [LJ 1211, 3-[4-(3-Trifluoromethyl-4-fluorophenyl)-piperazino]propane-1,2-diol] |  | +184% | 90% | 10% | 0% | -1 °C |  | 
OC(CN1CCN(c2cccc(C(F)(F)F)c2)CC1)CN1CCN(c2cccc(C(F)(F)F)c2)CC1 [LJ 1145, 1,3-bis[4-(m-Trifluoromethylphenyl)-piperazino]-propan-2-ol] | -56% | +74% | 60% | 87% | 0% |  |  | 
O=C1CCCCC1CN1CCN(c2ccc(F)c(C(F)(F)F)c2)CC1 (centres unmarked) [LJ 1196, 2-[4-(3-Trifluoromethyl-4-fluorophenyl)-piperazino]-methyl-cyclohexanone] | -61% | +300% | 100% | 90% | 10% |  |  | 
O=C1CCCCC1CN1CCN(c2cccc(C(F)(F)F)c2)CC1 (centres unmarked) [LJ 1144] | -88% | +212% | 90% | 100% | 65% |  |  | 
OCC(O)CN1CCN(c2cccc(C(F)(F)F)c2)CC1 (centres unmarked) [LJ 1142, 3-[4-(m-Trifluoromethylphenyl)-piperazino]-propane-1,2-diol] | -55% | +92% | 100% | 100% | 10% |  |  | 
OC1CCCCC1CN1CCN(c2cccc(C(F)(F)F)c2)CC1 (centres unmarked) [LJ 1161, 2-[4-(m-Trifluoromethylphenyl)-piperazino]-methyl-cyclohexanol] | -68% | +137% | 70% | 90% | 80% |  | reduce the toxicity of amphetamine compounds | also active if not more active than codeine
O=C1CCCCCC1CN1CCN(c2cccc(C(F)(F)F)c2)CC1 (centres unmarked) [LJ 1176, 2-[4-(m-Trifluoromethylphenyl)-piperazino]-methyl-cycloheptanone] | -66% | +147% | 40% | 70% | 50% |  | reduce the toxicity of amphetamine compounds | also active if not more active than codeine

— patent US4203986A, “M-Trifluoro-methylphenyl-piperazine” (Metabio-Joullie, priority 1977, dated 1980)
